From PubChem BioAssay AID1745853 (National Center for Advancing Translational Sciences (NCATS), 2022)
The other results are listed elsewhere or left out. The main result of the screen is listed elsewhere. These columns were measured beside it and carry no call.

Legend:
Test in all cases: Primary Screen for Target Class Profiling of Small Molecule Inhibitors of Methyltransferases
[1] = target: Glycine N-methyltransferase (Homo sapiens) (UniProt Q14749); details: purified enzyme, MTase-Glo SAH luminescence; measured here: GNMT inhibition; at 40 µM; stronger effect = lower value
Outline: (§1)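 Each enzyme was reacted with SAM and its substrate, with compounds tested once at 40 uM; SAH formed was read by MTase-Glo luminescence.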

[2] = target: Guanidinoacetate N-methyltransferase (Homo sapiens) (UniProt Q14353); details: purified enzyme, MTase-Glo SAH luminescence; measured here: GAMT inhibition; at 40 µM; stronger effect = lower value
Outline: as §1

[3] = target: Histamine N-methyltransferase (Homo sapiens) (UniProt P50135); details: purified enzyme, MTase-Glo SAH luminescence; measured here: HNMT inhibition; at 40 µM; stronger effect = lower value
Outline: as §1

[4] = target: Nicotinamide N-methyltransferase (Homo sapiens) (UniProt P40261); details: purified enzyme, MTase-Glo SAH luminescence; measured here: NNMT inhibition; at 40 µM; stronger effect = lower value
Outline: as §1

[5] = target: Phenylethanolamine N-methyltransferase (Homo sapiens) (UniProt P11086); details: purified enzyme, MTase-Glo SAH luminescence; measured here: PNMT inhibition; at 40 µM; stronger effect = lower value
Outline: as §1
On the % scale 0 is the no-effect control and ±100 the full control effect.

SMILES	activity change, negative = inhibition [1] [%]	activity change, negative = inhibition [2] [%]	activity change, negative = inhibition [3] [%]	activity change, negative = inhibition [4] [%]	activity change, negative = inhibition [5] [%]
COc1cnc(-c2ccc(Cn3c(CC(C)(C)C(=O)O)c(SC(C)(C)C)c4cc(OC[C@@H]5Cc6ccccc6N5C(C)=O)ccc43)cc2)nc1	-7.77	-0.946	10	-51.1	-3.17
Cc1ccc(CNC(=O)CCc2nnc3n(CC(C)C)c(=O)c4ccccc4n23)cc1	0.44	0	9.84	9.62	1.46
COCCCN1C(=O)c2c(C(=O)OC)ncn2CC1(C)C(=O)NC1CCCCCC1 (stereo not given)	4.83	-2.09	7.74	13.3	4.43
O=C(O)c1ccc(CN2CC(COc3ccccc3)C3(C2)CN(c2ccccc2)C3)cc1 (stereo not given)	-14.1	-8.51	-5.07	-20.4	8.7
CC(C)Cn1c(=O)c2ccccc2n2c(=O)n(CC(=O)NCc3ccc(Cl)cc3)nc12	-8.45	0	-3.24	-4.53	-8.06
Cc1ccc(-c2noc(-c3cccc(S(=O)(=O)N4CCN(c5cccc(C)c5C)CC4)c3)n2)cc1	-2.18	-1.65	-5.89	-11.3	-8.71
O=C1CN(Cc2ccccc2Cl)S(=O)(=O)c2ccccc2N1Cc1ccccc1F	16.2	0.841	11.7	6.03	7.85
O=C1Cc2c(-c3ccccc3OCc3ccccc3)n[nH]c2CN1Cc1ccccn1	-16.1	-8.26	-11.6	-27.8	-7.35
COCCN1CCCC2(CCN(C(=O)c3ccc(Cl)s3)C2)C1=O (stereo not given)	-0.671	1.77	-0.895	-3.12	-1.59
Cc1ccc([S+](=O)([O-])N2CCCC(N3C(=O)c4c(c(C)nn4-c4ccccc4)C3C)C2)cc1 (stereo not given)	-2.44	-2.61	1.28	-8.62	-13.6
COc1ccccc1CCNC(=O)c1cc2n(n1)CC(C)(C(=O)NC1CCCCC1)N(C)C2=O (stereo not given)	2.73	2.62	5.04	3.88	2.08
CCCN1C(=O)c2cc(C(=O)NCCCN3CCCCC3)nn2CC1(C)C(=O)NC1CCCC1 (stereo not given)	-1.11	-0.578	-3.71	-6.35	-2.19
C=C(C)C1=C[C@@]2(C)C(=CC1=O)CC[C@@H](O)[C@@H]2C	4.08	3.34	8.27	-9.74	7.32
COc1ccc(NC2CCCN(C(=O)c3cn(CCCN)nn3)C2)cc1 (stereo not given)	-16.6	-8.59	-4.89	-13	-23.1
Cc1cc2c(cc1S(=O)(=O)Nc1ccc(Br)cc1)n(C)c(=O)n2C	-7.34	0.259	-12.1	-18.6	-13.2
Cc1ccc(CNc2nc3c(-c4cccc(F)c4)nnn3c3ccccc23)cc1	0.736	5.7	-1.68	-3.54	-5.94
CCN(CC)CCCCNc1ncc2cc(-c3c(Cl)cccc3Cl)c(NC(=O)NC(C)(C)C)nc2n1	3.97	12.9	-31.6	-12.8	-1.99
COc1cc(NS(=O)(=O)c2cc3c(cc2C)n(C)c(=O)n3C)cc(OC)c1	13.3	0	9.26	4.45	4.1
CC1(C)CC2C(C1)C(C)(O)C13CC1(COC3=O)C2O (stereo not given)	0.313	-4.16	4.27	-14.5	-9.47
COc1cccc(-c2cc(NCc3ccc4c(c3)OCO4)nc(N)n2)c1	-13.6	-12.9	-62.5	-35.5	-8.15
COc1ccc(-c2cnc3[nH]cc(CC(=O)N4CCNC(=O)C4)c3c2)cc1	-9.37	-8.75	-7.38	-9.52	-20.9
CCOc1ccc(C(=O)Nc2ccc3c(c2)C(=O)N(C)C2=NCCN23)cc1	-1.36	0	2.15	5.43	2.13
COc1ccccc1CN1C(=O)c2cc3occc3n2CC1(C)C(=O)NC1CCCCCC1 (stereo not given)	-0.008	0	3.6	3.55	-2.5
COc1ccc2cc3n(c2c1)CC(C)(C(=O)NCC1CCCO1)N(Cc1ccccc1C)C3=O (stereo not given)	3.9	0.271	3.59	6.71	1.45
O=C(c1ccccc1Cl)N1CCc2c(nc3cc(-c4ccccc4)[nH]n3c2=O)C1	-27.7	-38.5	-34.6	-18.4	-18.2
CC1(C(=O)NCc2ccc(F)cc2)Cn2cnc(C(=O)NCc3ccccc3Cl)c2C(=O)N1C1CC1 (stereo not given)	-15.6	-7.95	-12.7	-15.6	-11.8
COc1cccc(-c2cc(C(=O)NCc3c(C)cc(C)[nH]c3=O)c3c(c2)N(C(C)C)CCO3)c1OC	-9.62	-6.18	-4.68	-35.4	17.8
COc1ccc(CN2C(=O)c3nc4ccccc4n3CC2(C)C(=O)NC2CCCCCC2)cc1 (stereo not given)	-12.9	-2.2	-5.71	-16.3	-7.33
CCN1C(=O)c2cc(C(=O)NCc3ccc(N(C)C)cc3)nn2CC1(C)C(=O)NC1CCCC1 (stereo not given)	8.88	2.72	8.54	7.02	7.3
CCOc1ccc(CN2C(=O)c3cc4occc4n3CC2(C)C(=O)NC2CCC(C)CC2)cc1 (stereo not given)	-2.9	4.85	1.18	-1.37	-5.84
